Target: the molecule itself
Assay: RT-QuIC (thioflavin T fluorescence of amyloid aggregation); 2 or 4 uM K12/K11 monomer, 10 uM ThT, 250 mM trisodium citrate or 500 mM sodium sulfate, 10 mM HEPES pH 7.4, 37°C, cycles of 60 s orbital shaking at 500 rpm and 60 s rest, 384-well plates; seeded with dilutions of human brain homogenate in N-2 supplement, or spontaneous; no heparin

Protein | binding result
K12 tau fragment ([…] and […] of full-length human tau) with an alanine mutation at residue 322 (domain or fragment, tau (microtubule-associated protein tau), human, […] (repeat R1); tau (microtubule-associated protein tau), human, […] (repeats R3, R4 and on to residue 400); Cloned between NdeI and XhoI of pET28; Repeat R2 ([…]) is absent; also called extended 3-repeat tau substrate; source: E. coli BL21(DE3), purified (HisTrap, acetone precipitation, Superdex 75 SEC)) not shown | binds
K11 tau fragment with alanine mutations at residues 291 and 322 (domain or fragment, tau (microtubule-associated protein tau), human, repeats R1, R2, R3 and R4 and on to residue 400; the methods print '[…] and […]'; Cloned between NdeI and XhoI of pET28; source: E. coli BL21(DE3), purified (HisTrap, acetone precipitation, Superdex 75 SEC)) not shown | binds

Source: PMC12902886, “Classification of tauopathies from human brain homogenates through salt‐modulated tau amplification” (Alzheimer's & Dementia, 2026)
